Source: PMC4336329 (PLoS ONE, 2015)
Screen size: about 310,000 compounds; about 14,000 (4.5%) showed an effect of 50% or more. Effects have a minus sign here. Some of the results follow.

molecular target: human ether-à-go-go-related gene (hERG) potassium channel (human, UniProt Q12809); experiment: primary screen, population patch clamp on CHO cells stably expressing hERG
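Note: peak tail current of the secondary pulse compared with the same well before compound.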

Chain of human ether-à-go-go-related gene (hERG) potassium channel (Q12809 whole entry, looked up): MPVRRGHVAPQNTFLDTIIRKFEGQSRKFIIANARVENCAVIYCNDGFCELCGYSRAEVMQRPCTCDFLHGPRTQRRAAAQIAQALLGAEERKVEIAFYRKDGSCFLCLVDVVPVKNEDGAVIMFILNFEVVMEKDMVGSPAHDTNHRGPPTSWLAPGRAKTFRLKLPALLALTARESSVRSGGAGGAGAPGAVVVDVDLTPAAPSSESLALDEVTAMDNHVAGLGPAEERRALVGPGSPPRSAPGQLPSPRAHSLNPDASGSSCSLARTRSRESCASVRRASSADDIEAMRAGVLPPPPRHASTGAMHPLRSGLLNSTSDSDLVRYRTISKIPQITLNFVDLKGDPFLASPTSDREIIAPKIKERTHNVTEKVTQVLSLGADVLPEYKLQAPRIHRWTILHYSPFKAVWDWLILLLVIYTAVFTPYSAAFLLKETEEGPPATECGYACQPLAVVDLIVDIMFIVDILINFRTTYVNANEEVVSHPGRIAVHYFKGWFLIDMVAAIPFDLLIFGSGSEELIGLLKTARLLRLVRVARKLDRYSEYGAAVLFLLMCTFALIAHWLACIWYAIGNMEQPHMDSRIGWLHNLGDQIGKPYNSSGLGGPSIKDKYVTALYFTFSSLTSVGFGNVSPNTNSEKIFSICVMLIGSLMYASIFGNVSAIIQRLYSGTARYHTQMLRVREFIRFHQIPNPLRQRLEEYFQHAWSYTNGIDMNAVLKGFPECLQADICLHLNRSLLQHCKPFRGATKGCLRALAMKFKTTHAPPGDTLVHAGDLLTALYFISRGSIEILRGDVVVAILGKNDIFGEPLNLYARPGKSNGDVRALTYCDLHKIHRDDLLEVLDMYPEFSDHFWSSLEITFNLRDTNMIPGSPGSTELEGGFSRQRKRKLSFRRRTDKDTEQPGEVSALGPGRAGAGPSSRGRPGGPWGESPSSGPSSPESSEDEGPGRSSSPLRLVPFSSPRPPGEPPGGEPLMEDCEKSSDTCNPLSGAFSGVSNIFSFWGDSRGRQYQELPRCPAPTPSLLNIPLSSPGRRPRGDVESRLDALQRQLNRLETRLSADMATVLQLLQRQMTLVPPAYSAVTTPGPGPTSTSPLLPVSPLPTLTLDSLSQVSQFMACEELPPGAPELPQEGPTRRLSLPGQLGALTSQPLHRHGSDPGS

SMILES	hERG current change (%, negative = inhibition) at 10uM [%]
CCOC(=O)C1CCCN(c2c(NCCc3ccc(S(N)(=O)=O)cc3)c(=O)c2=O)C1 (stereo not drawn)	-1.91
CCCCS(=O)c1c(O)c2ccccc2[nH]c1=O (stereo not drawn)	15.3
Cc1ccc(NC(=O)c2ccc3snnc3c2)cc1	13.4
CC(O)(CS(=O)(=O)Cc1ccccc1)C(=O)Nc1ccc(C(F)(F)F)cc1 (stereo not drawn)	-0.8
C/C(=C\C(=O)c1ccc(C)cc1)Nc1cccc(O)c1	3.17
COC(=O)Cn1ncc2c3ccccc3n(C)c2c1=O	4.05
O=S1(=O)NC(C2CC2c2ccccc2)CCO1 (stereo not drawn)	-0.374
Cc1cc(/N=C/N(C)C)on1	29
Cc1ccc(S(=O)(=O)N(C)CC(=O)Nc2nnc(CC(C)C)s2)cc1	-4.11
Cn1c2c(c(=O)[nH]c1=O)C(c1ccc(O)cc1)C1=C(N2)c2ccccc2C1=O (stereo not drawn)	-5.73
O=C(CSc1nncn1-c1cccnc1)N(c1ccccc1)c1ccccc1	4.28
CC(=O)N1CCc2c(sc(NC(=O)CCS(=O)(=O)c3ccccc3)c2C(N)=O)C1	5.3
COc1ccc(-c2csc(N(CCCN(C)C)C(=O)c3ccc(C(C)(C)C)cc3)n2)cc1.Cl	18
CCCC(C(=O)NC1CCCC1)N(C(=O)c1snc(C(N)=O)c1N)c1ccc(OCC)cc1 (stereo not drawn)	-25.6
N#Cc1ccc(N/N=C/c2cn(-c3ccccc3)nc2-c2ccccc2)c([N+](=O)[O-])c1	-3.35
COc1ccc2cc(CN(CC3COCCO3)S(=O)(=O)c3ccc(Cl)cc3)c(=O)[nH]c2c1 (stereo not drawn)	9.87
CCc1ccc(OCc2nnc(SCC(=O)Nc3cccc(C(=O)N4CCOCC4)c3)o2)cc1	-61.4
Cc1cc(C)c2sc(NC(=O)c3ccc([N+](=O)[O-])o3)nc2c1	-19.6
CCOC(=O)NC(=O)c1cn(N(C)c2ncc(C(F)(F)F)cc2Cl)c(=O)[nH]c1=O	-5.85
O=C(NNC(=S)NC1CC2C=CC1C2)c1ccncc1 (stereo not drawn)	16.4
COc1cccc(CNCCO)c1OCc1ccc(Cl)cc1.Cl	-18
Cc1nn(-c2ccccc2)c(C)c1/C=N\NS(=O)(=O)c1ccc(Cl)cc1	-17.7
O=C(CCNS(=O)(=O)c1ccc(Br)cc1)NCCCSc1ccccc1	-4.84
O=C(N/N=C/c1ccccc1O)C(=O)N1CCCCCC1	7.3
